Hit rate of the full screen: of about 43,000 compounds, about 200 (0.47%) were called active. Inconclusive results (about 12%) are left out. The call rests on the fitted dose curve; in most records, active means well fitted cell-killing curve with a large enough effect; inconclusive means small, poorly fitted or top-dose-only effect, or effect the other way; inactive means flat fitted curve, though single readings scatter. The list shows a part of the results.
On the % scale 0 is the no-effect control and ±100 the full control effect; potency means the concentration at half of the fitted maximal effect.

The assay can be described thus: Cell viability qHTS assay in S16 Pmp22-F2sN cells. Further: nearly all actives have a fitted effect of over 65% in size. The settings on record: S16 Pmp22-F2sN Schwann cells (luciferase reporters placed in the Pmp22 gene) viability, CellTiter-Glo, 24 h; series mostly up to 57.5 µM; activity change, negative = cytotoxicity: at the top concentration. From the text: Assay Provider: Jim Inglese Ph.D. National Center for Advancing Translational Science, National Institutes of Health, Rockville, MD CMT is a heterogeneous group of neurological disorders that affect approximately 1 in 2,500 people. In particular, the most common form of CMT, CMT1A is genetically linked to the duplication of the PMP22 gene which leads to Schwann cell overexpression, thus manifesting itself as a typical case of dose-sensitive diseases. To identify small molecule compounds that can mediate the expression of PMP22 we developed a phenotypic assay screening strategy by utilizing genome editing techniques to construct Schwann cell lines containing novel reporter technology to monitor the transcriptional or translational regulation of PMP22. For high sensitivity we use a bioluminescent reporter system embedded in the 3' UTR of the PMP22 gene (S16(c9) Pmp22-F2sN) to identify compounds that inhibit gene expression. […] We can further discriminate the effect of all transcriptionally active molecules on PMP22 translation or stability with an assay that incorporates a short NLuc peptide (HiBiT) at the C-terminus of expressed PMP22 (S16(f8) PMP22-HiBiT) allowing alpha complementation and luminescence detection of membrane-associated PMP22 protein. These assays were screened against the NCATS Sytravon Library Collection. Miniaturization of these assays to 1536-well plate format for quantitative high throughput screening (qHTS) yielded rich data sets immediately from the qHTS assay (S16(c9) Pmp22-F2sN), when compared with data from a cell viability assay (Cell TiterGlo) to identify compounds that decreased the output signals through cellular toxicity to streamline the selection process of actives for subsequent characterization using the HiBiT assay (S16(f8) PMP22-HiBiT).
Cell viability assay in S16 Pmp22-F2sN cells PROTOCOL TABLE (format as described by Inglese J, Shamu CE and Guy RK. 2007) SEQUENCE No. (e.g., 1, 2, 3, etc.); […] (e.g., Cells, Incubation, Reagent, etc.); VALUE and DESCRIPTION. 1. Cells. Add 500-1,000 cells in 4 uL in growth media (DMEM High Glucose, No Phenol Red media + 10% heat-inactivated FBS + 1% Pen/Strep supplemented media) per well into Greiner 1536-well white/solid bottom high base, TC-treated plates. 2. Compounds. Library compounds and controls added at 23nL per well, transferred by Pin Tool. 3. Incubation. Incubate plates at 37C, 5% CO2, 95% RH for 24 h. 4. Reagent. Add 3uL CellTiter-Glo per well of Greiner 1536-well plates. 5. Incubation. Incubate plates at room temperature for 15 min., protect from light. 6. Detector. FLuc luminescence measured using CCD-based camera (Viewlux). NOTES (numbers refer to Sequence numbers above; values are from representative experiments) 6. Luminescence Read: Clear filter; Exposure = 1 sec, Gain = High, Speed = Slow, Binning = 2X REFERENCES: 1. Inglese J, Shamu CE and Guy RK, Reporting data from high throughput screening of small molecule libraries, Nature Chemical Biology, 2007, 3(8): 438-441. doi.org/10.1038/nchembio0807-438 2. Yasgar A, Shinn P, Jadhav A, Auld DS, Michael S, Zheng W, Austin CP, Inglese J and Simeonov A, Compound Management for Quantitative High-Throughput Screening. J. Assoc. Lab. Auto., 2008, 13: 79-89. doi: 10.1016/j.jala.2007.12.004
Background: In qHTS, concentration-response curves come from the screen itself.
On to `COc1ccc(N2CCN(C(=O)c3noc4c3CCCCC4)CC2)cc1`, for which the “activity change, negative = cytotoxicity” value was inactive: -4.9%. The same measure, in the same setting: under `CCC1CN(C(=O)N2CCC(C(=O)NCc3cccs3)CC2)c2ccccc2O1` (centres undefined) stands inactive: -6.53%; under `Cc1ccc(N2C(=O)CSC23C(=O)N(CC(=O)NCCc2ccccc2)c2ccccc23)cc1` (centres undefined), inactive: -3.67%. On to `Cc1ccc(NC(=O)c2ccc(-c3ccccc3)s2)cc1`, for which the “activity change, negative = cytotoxicity” value was inactive: 3.22%. `Cc1ccc(C(=O)OCc2cc(=O)n3nc(CC(C)C)sc3n2)cc1`: the “activity change, negative = cytotoxicity” value was inactive: -5.07%. Same read-out and setting: then `COc1ccc(CCNC(=O)c2cnc3sc(N4CCCCCC4)nn3c2=O)cc1`, with inactive: 9.87%.

Consider `O=C(NCCc1nc2ccccc2n1Cc1ccc(Cl)cc1)c1ccccc1`, for which the “activity change, negative = cytotoxicity” value was inactive: 7.72%. As to `CCOC(=O)c1ccccc1NC(=O)c1sc2nc(-c3ccc(F)cc3)cn2c1C`, the “activity change, negative = cytotoxicity” value is inactive: -1.58%. On to `Cc1nnc(NC(=O)CSc2nc3c([nH]c4ccccc43)c(=O)n2-c2cccc(Cl)c2)s1`, for which the “activity change, negative = cytotoxicity” value was inactive: 0.765%. On the same count and under the same terms, under `COc1ccc(-c2nc3ccccc3o2)cc1NC(=O)c1cc(Br)ccc1OC` stands inactive: 1.39%; under `Cc1cccc(N2CCN(C(=O)Cc3c(C(=O)O)c(C)cn3C)CC2C)c1` (centres undefined), inactive: 4.04%; under `CN(Cc1ccccc1)C(=O)c1ccc(CSc2nc3cccnc3n2Cc2ccccc2)cc1`, inactive: -1.54%. `CCCS(=O)(=O)Nc1cccc(-c2cn3ccsc3n2)c1`: the “activity change, negative = cytotoxicity” value is inactive: -10%. For the compound `Cc1cccc(CSc2nc3ccncc3n2CC(=O)N(C)C2CCCCC2)c1`, the “activity change, negative = cytotoxicity” value was inactive: -0.849%.

Take `COc1ccc(CCNC(=O)c2ccc3nc(CCc4ccccc4)oc3c2)cc1OC`: the “activity change, negative = cytotoxicity” value was inactive: 16.5%. Turning to `COc1ccc(NC(=O)Cn2c(=O)oc3cc(S(=O)(=O)N4CCCC4)ccc32)cc1OC`, the “activity change, negative = cytotoxicity” value is inactive: 6.91%. With `COc1ccc(OC)c(NC(=O)c2nnn(CC(=O)Nc3ccc(C(C)C)cc3)c2N)c1`, the “activity change, negative = cytotoxicity” value was inactive: 3.4%. For the compound `COc1ccc(NC(=O)Cn2cnc3c(nc4n3CCCCC4)c2=O)cc1Cl`, the “activity change, negative = cytotoxicity” value is inactive: -2.85%. Turning to `COc1ccc(C2CC(=O)Nc3c2c(C)nn3-c2nc(C)cc(C)n2)c(OC)c1OC` (centres undefined), the “activity change, negative = cytotoxicity” value was inactive: -0.398%. `CCc1cccc(NC(=O)CCn2nc(C)cc2C)c1`: the “activity change, negative = cytotoxicity” value is inactive: 9.82%. On the same count and under the same terms, under `CCC(=O)NCCc1sc2nc(-c3ccc(OC)cc3)nn2c1C` stands inactive: 6.04%. For `Cc1ccc(NC(=O)C2CCCN(S(=O)(=O)c3cccc4nsnc34)C2)c(C)c1` (centres undefined), the “activity change, negative = cytotoxicity” value was inactive: -5.6%. The same measure, in the same setting: under `CCOc1ccc(C(=O)NCCc2csc(-c3cccnc3)n2)cc1` stands inactive: 1.89%. Turning to `Cc1ccc(Cl)cc1Nc1nn2c(=O)c3ccc(C(=O)NC4CCC(C)CC4)cc3nc2s1` (centres undefined), the “activity change, negative = cytotoxicity” value is inactive: 2.09%. As to `O=C(Cn1c(=O)n(-c2ccc(F)c(Cl)c2)c(=O)c2sc3ccccc3c21)NC1CCCCC1`, the “activity change, negative = cytotoxicity” value is inactive: -1.07%. Turning to `CCOC(=O)c1c(-c2ccccc2)oc2cc(Br)c(OCc3ccccc3)cc12`, the “activity change, negative = cytotoxicity” value was inactive: 14.4%. Take `CCn1c(=N)c(C(=O)NC2CCCC2)cc2c(=O)n3cc(C)ccc3nc21`: the “activity change, negative = cytotoxicity” value was inactive: 5.31%. For `Cc1ccc(OCCCCn2nnc3sc4c(c3c2=O)CCC(C)C4)cc1` (centres undefined), the “activity change, negative = cytotoxicity” value was inactive: 3.58%. Regarding `CCC(C)S(=O)(=O)c1oc(-c2ccc(F)cc2)nc1S(=O)(=O)c1ccc(F)cc1` (centres undefined), the Potency is active: 6.31 µM.

For `CCc1ccc(NC(=O)Cn2c(=O)n(CCC(=O)NCCc3ccc(OC)c(OC)c3)c(=O)c3ccccc32)cc1`, the “activity change, negative = cytotoxicity” value was inactive: 6.78%. The same measure, in the same setting: under `CCNC(=O)C1CCCN(c2nn3cc(-c4ccc(C)cc4)nc3s2)C1` (centres undefined) stands inactive: -19.9%. Same read-out and setting: then `Cc1ccc(N2CC(NC(=O)C3CCCC3)CC2=O)cc1C` (centres undefined), with inactive: 3.78%; and `CC(=O)c1ccc(S(=O)(=O)N2CCn3cccc3C2c2ccc(F)c(F)c2)cc1` (centres undefined), with inactive: -18.8%; and `CCc1cc(C(=O)NCc2ccc(F)cc2)no1`, with inactive: 4.71%.

As for `COc1ccc(CNc2ncnc3c2c(-c2ccccc2)cn3-c2cccc(C)c2)cc1`, the “activity change, negative = cytotoxicity” value is inactive: 0.255%. On to `Cc1ccc(NC(=O)CSc2nc(C3CCCC3)nc3c2c(=O)n(C)c(=O)n3C)c(C)c1`, for which the “activity change, negative = cytotoxicity” value was inactive: 3.13%. For the compound `CCc1nnc(SCc2nc(-c3cccc(C)c3)oc2C)c2cc3sc(C)cc3n12`, the “activity change, negative = cytotoxicity” value was inactive: 12.6%. As to `O=C(CSc1nccn1-c1ccc(F)cc1)Nc1cccc2ccccc12`, the “activity change, negative = cytotoxicity” value was inactive: -1.99%.

Take `COc1ccc(C(=O)Nc2cc(NC(=O)c3ccco3)ccc2OC)cc1Cl`: the “activity change, negative = cytotoxicity” value was inactive: -3.67%. Same read-out and setting: then `O=C(COc1ccccc1Cl)Nc1nc(-c2ccc(F)cc2)ns1`, with inactive: -0.286%. As for `COc1cccc(NC(=O)C2CCN(S(=O)(=O)c3c(C)noc3/C=C/c3cccs3)CC2)c1`, the “activity change, negative = cytotoxicity” value is inactive: -23.6%. Turning to `COc1ccc2c(c1)CC(NC(=O)Nc1ccc(Br)c(C)c1)CO2` (centres undefined), the “activity change, negative = cytotoxicity” value was inactive: 0.789%. On to `CCC(=O)N1c2ccc(S(=O)(=O)CCC(=O)N3CCN(c4ccc(F)cc4)CC3)cc2CC1C` (centres undefined), for which the “activity change, negative = cytotoxicity” value was inactive: 5.05%. In the case of `O=C(Nc1cccc(NC(=O)c2ccc(Br)cc2)c1)c1ccccc1`, the “activity change, negative = cytotoxicity” value was inactive: 25.6%.

For `CCCn1c(NCc2ccccc2F)nc2ccccc21`, the “activity change, negative = cytotoxicity” value is inactive: 5.53%. As for `CCCCCNC(=O)c1ccc2c(=O)n(CCc3ccccc3)c(=O)[nH]c2c1`, the “activity change, negative = cytotoxicity” value is inactive: -0.593%.

For the compound `CCOC(=O)N1CCc2c(sc(NCc3cccc(F)c3)c2C(=O)Nc2ccc(OCC)cc2)C1`, the “activity change, negative = cytotoxicity” value was inactive: -1.03%.

For the compound `CCN(C(=O)c1cccn(Cc2cccc(Cl)c2)c1=O)c1ccccc1`, the “activity change, negative = cytotoxicity” value was inactive: -1.55%. Turning to `Cc1ccc(-c2nc(Cn3c(SCc4ccc(F)cc4)nc4cccnc43)c(C)o2)cc1`, the “activity change, negative = cytotoxicity” value is inactive: -18.1%.
